In all, about 52,000 compounds went through this assay and about 1,700 (3.3%) were called active. Cut-off read from the data, not from the text of the source: active = survival mostly below about 52% (no sharp cut-off); inactive = mostly above about 56%. This is one part of the list.
tested on: Wild type; experiment: S. aureus survival, RN4220 and DeltatarO strains – OD600, teichoic acid synthesis inhibitors, primary screen (AID 463173); details: S. aureus RN4220 wild type/DeltatarO growth, OD600, 18 h, hits give low values, screened at 18.75 µg/mL (by protocol)

SMILES | survival
COc1ccccc1Nc1c2c(nc3ccc(NC(=O)c4ccc(N(C)C)cc4)cc13)CCCC2 | inactive: 110%
Cc1ccc(C(=O)c2c(N)c(C(=O)Nc3cccc(C(F)(F)F)c3)c3ccccn23)cc1 | inactive: 132%
Cc1ccc(-n2c(=O)c3oc4ccccc4c3n(Cc3cccc(F)c3)c2=O)cc1C | inactive: 83%
COc1cc(Nc2nc(-c3ccc(OC)c(OC)c3)nc3ccccc23)cc(OC)c1 | active: 0%
Cc1cccn2c(=O)c(C(=O)N3CCN(c4ccccc4)CC3)cnc12 | inactive: 22%
CCCCOc1ccc(C(=O)Nc2cccc(-c3nc4ccccc4o3)c2C)cc1 | inactive: 77%
Cc1nc2nc(NCc3ccc(Br)cc3)[nH]n2c(=O)c1Cc1ccccc1 | inactive: 63%
CCc1ccc(-n2c(=O)c3ccccc3n(Cc3ccccc3C#N)c2=O)cc1 | inactive: 90%
CC(C)c1ccc(NC(=O)c2ccc(=O)n(Cc3ccccc3)c2)cc1 | inactive: 80%
CCCC(=O)Nc1ccc2oc(-c3ccc(O)c(Br)c3)nc2c1 | inactive: 79%
CCCCC(CC)CNC(=O)CCCCCn1c(=O)[nH]c2ccsc2c1=O (stereo unspecified) | inactive: 70%
O=C(c1ccc2c(c1)N(Cc1ccc(Cl)cc1)C(=O)c1ccccc1S2(=O)=O)N1CCOCC1 | inactive: 94%
CCOc1ccc2[nH]c(=O)c(-c3nc4cccc(C)n4c3NCc3ccco3)cc2c1 | inactive: 108%
O=C(CSc1nc2c(oc3ccccc32)c(=O)n1-c1ccccc1)Nc1ccc(F)c(Cl)c1 | inactive: 70%
COc1ccc(OC)c(NC(=O)C2=C(C)C(=O)OC23CCN(C(C)C)CC3)c1 | active: 0%
Fc1ccc(N2CCN(c3ncnc4onc(-c5ccc(Cl)cc5)c34)CC2)cc1 | inactive: 81%
O=C(O)Cn1ncc2ccccc2c1=O | inactive: 111%
COc1cccc(C2C(C(N)=O)=C(C)Nc3ncnn32)c1 (stereo unspecified) | inactive: 89%
CCOC(=O)c1c(NC(C)=O)c2c3c(sc2n1Cc1cc(C)ccc1C)CCCC3 | inactive: 80%
CCOc1ccccc1NC(=O)Cn1c(=O)n(Cc2ccco2)c(=O)c2sc3ccccc3c21 | inactive: 60%
COc1ccccc1N(CC(=O)Nc1ccccc1C(F)(F)F)S(=O)(=O)c1ccc(C)cc1 | inactive: 76%
Cc1ccc(C)c(N2CCN(C(=O)Cn3nc(C)c4sc5ccccc5c4c3=O)CC2)c1 | inactive: 50%
COC(=O)c1ccc(Cc2ccccc2)o1 | inactive: 109%

SMILES | survival
COc1ccccc1NS(=O)(=O)c1cn(C)c(C)n1 | active: 10%
COc1ccc(N2CC(NC(=O)COc3cccc(C)c3)CC2=O)cc1OC (stereo unspecified) | inactive: 68%
Cc1oc2ccc(O)c(CN3CCCCCC3)c2c1C(=O)Nc1cccc(C(F)(F)F)c1 | inactive: 30%
O=C1C(c2nc3ccccc3[nH]2)=C(O)c2ccccc21 | inactive: 109%
CCC(O)c1nc2ccccc2n1Cc1cc(C)ccc1C (stereo unspecified) | inactive: 99%
Cc1ccc(NC(=O)C2CCN(S(=O)(=O)c3ccc4c(c3)CCCC(=O)N4)CC2)cc1N(C)C | inactive: 129%
COc1ccc(OC)c(NC(=O)C2CCN(S(=O)(=O)c3ccc4c(c3)CC(C)N4C(C)=O)CC2)c1 (stereo unspecified) | inactive: 59%
CCOc1ccc(NC(=O)CSc2nc3ccsc3c(=O)n2CCC(C)C)cc1 | inactive: 72%
CCCCn1c(CCCN2C(=O)c3ccccc3C2=O)nc2ccccc2c1=O | inactive: 104%
COc1ccc(-c2nc(CSCC(=O)NCCC(C)C)c(C)o2)cc1OC | inactive: 80%
COc1ccc(OC)c(NC(=O)C(C)n2c(=O)c(-c3ccccc3NC(C)=O)nc3ccccc32)c1 (stereo unspecified) | inactive: 109%
O=C1C2C3c4ccccc4C(c4ccccc43)C2C(=O)N1O (stereo unspecified) | inactive: 118%
COc1ccc(OC)c(CNC(=O)NCc2noc3ccc(C)cc23)c1 | inactive: 112%
Cc1cc(Nc2cccc(Cl)c2)nc2ccc(NC(=O)COc3ccc(Cl)cc3)cc12 | inactive: 94%
Cc1c(N2C(=O)CSC2=S)c(=O)n(-c2ccccc2)n1C | inactive: 116%
CCOC(=O)C1=C2SCCN2C(=O)C(C#N)C1(C)C (stereo unspecified) | inactive: 105%
CCOC(=O)c1[nH]c2ccc(C)cc2c1NC(=O)OC | inactive: 116%
CCN1C(=O)c2ccccc2S(=O)(=O)c2ccc(C(=O)NCc3ccccc3OC)cc21 | inactive: 78%
CC(C)c1ccc(NC(=O)c2cc3c(=O)[nH]c4ccccc4c3n2C)cc1 | inactive: 76%
O=C(CSc1cn(CC(=O)N2CCCCC2)c2ccccc12)NCc1ccccc1Cl | inactive: 86%
COc1ccc(C2/C(=C(\O)c3ccc(C)cc3)C(=O)C(=O)N2CCC(=O)O)cc1 (stereo unspecified) | inactive: 114%
CCC1CN(C(=O)N2CCC(C(=O)NCc3cccc(F)c3)CC2)c2cc(C)ccc2O1 (stereo unspecified) | inactive: 87%
COC(=O)Cn1c(O)c(N=NC(=O)C2COc3ccccc3O2)c2ccccc21 (stereo unspecified) | inactive: 102%

SMILES | survival
Cc1ccc(-n2nc(C)c3c(C(=O)NCCc4ccc(S(N)(=O)=O)cc4)cc(C)nc32)cc1 | inactive: 128%
Cc1nn(-c2ccccc2)c(Cl)c1/C=N/NC(=O)c1cccnc1 | inactive: 103%
O=C(CN1C(=O)c2cccnc2Sc2ccccc21)Nc1cc(F)ccc1F | inactive: 71%
COc1ccccc1CNC(=O)c1cc(S(=O)(=O)N2CCCC(C)C2)cn1C (stereo unspecified) | inactive: 66%
C1=CCC(CN2CCNCC2)CC1 (stereo unspecified) | inactive: 98%
CCCCN(C)CCCNC(=O)c1cn(CC)c2ccc(S(=O)(=O)N3CCc4ccccc4C3)cc2c1=O | inactive: 77%
COc1ccc(NC(=O)Nc2cc(C(=O)NCc3ccc(C)cc3)ccc2N2CCCC2)cc1 | inactive: 73%
Cc1ccc(-n2nc(C)c3c(C(F)(F)F)cc(-c4cccnc4)nc32)cc1C | inactive: 81%
Cc1ccc2oc(-c3ccc(NC(=O)c4oc5ccc(Cl)cc5c4C)cc3)nc2c1 | inactive: 73%
CCc1ccc(NC(=O)CC2C(=O)N(c3ccc(F)cc3)C(=O)N2Cc2ccc(F)cc2)cc1 (stereo unspecified) | inactive: 76%
O=C(c1cnn(-c2ccc(F)cc2)c1-n1cccc1)N1CCN(c2ccccc2)CC1 | inactive: 78%
Cc1cccc(NC(=O)Cn2c(SCC(=O)NCc3ccccc3)nc3ccccc32)c1C | inactive: 131%
CCOc1ccc(-c2cn3nc(CC(C)C)sc3n2)cc1 | inactive: 107%
CNC(=O)CCC(=O)Nc1ccc(C)cc1 | inactive: 106%
O=C(NCCSCc1ccccc1)C1CCN(S(=O)(=O)Cc2ccccc2)CC1 | inactive: 93%
CCN(CC)c1ccc(C2C(C(N)=O)=C(C)Nc3nc(SCc4ccccc4Cl)nn32)cc1 (stereo unspecified) | inactive: 149%
CCOC(=O)c1ccc(N=C2SC(C(=O)Nc3ccccc3)CC(=O)N2C)cc1 (stereo unspecified) | inactive: 91%
COc1ccc(C)cc1NS(=O)(=O)c1ccc2oc(=O)c3ncn(C)c3c2c1 | inactive: 98%
COc1ccc(CC2=C(C)C(=O)N(c3ccc(OC)cc3)C2=O)cc1 | inactive: 97%
COc1ccc(CNC(=O)C2(c3cccs3)CCOCC2)cc1 | inactive: 59%
CCN(CC)S(=O)(=O)c1cccc(C(=O)Nc2ccccc2C(=O)Nc2ccc(OC)cc2)c1 | inactive: 77%
CCOC(=O)C1=C(CN2CCN(c3ccc(C)cc3C)CC2)NC(=O)NC1c1ccc(OC)cc1 (stereo unspecified) | inactive: 99%
Cc1ccccc1-c1nc(CN2CCC(C(=O)NC(C)C)CC2)c(C)o1 | inactive: 96%

SMILES | survival
CCCCc1nn2c(=O)cc(COC(=O)CNC(=O)COc3ccc(C)cc3)nc2s1 | inactive: 74%
CCOc1ccc(NC(=O)c2c(NCc3cccs3)sc3c2CCC(C)C3)cc1 (stereo unspecified) | inactive: 152%
COc1ccc(N2CCN(CC(O)COc3c(OC)cccc3OC)CC2)cc1 (stereo unspecified) | inactive: 81%
Cc1ccc(NC(=O)Cn2cc(C(=O)c3cccs3)c3ccccc32)cc1C | inactive: 103%
Cc1ccc(C(=O)c2cn(Cc3cccc(F)c3)c3nc(C)ccc3c2=O)cc1 | inactive: 78%
Cc1ccc(-n2c(=O)c3c(cnn3C)n(CC(=O)Nc3cc(C)ccc3C)c2=O)cc1 | inactive: 76%
O=C(CCSCc1cnn(-c2ccccc2)c1-n1cccc1)NCc1ccc(Cl)cc1 | inactive: 76%
O=C(CCn1cccn1)Nc1cccc(C(F)(F)F)c1 | inactive: 65%
Cc1oc2ncnc(N3CCOCC3)c2c1C(=O)NCc1ccccc1 | inactive: 63%
CCn1c(SCC(=O)N(C2CCCCC2)C2CCCCC2)nnc1C(C)C | inactive: 100%
COc1ccc(C(=O)NCc2ccc3c(c2)CCN3C(=O)c2cccc(C)c2)cc1OC | inactive: 123%
COc1ccc(CCNC(=O)CSc2nc3ccccc3nc2Cc2ccc(Cl)cc2)cc1OC | active: 10%
Cc1nc2sccn2c(=O)c1S(=O)(=O)N1CCN(c2ccc(F)cc2)CC1 | inactive: 82%
CC(C)Cn1c(-c2ccc(S(=O)(=O)N3CCCC3)cc2)csc1=Nc1ccccc1 | inactive: 71%
CCCN(Cc1cccs1)C(=O)Nc1ccc(Br)c(C)c1 | inactive: 71%
Cc1cccc(NS(=O)(=O)c2ccc(Cl)c(C(=O)Nc3ccccc3C)c2)c1 | inactive: 69%
CCCCOc1ccccc1NC(=O)Cn1c(-c2cncs2)nc2ccccc21 | inactive: 76%
Cc1oc(-c2ccccc2)nc1CNS(=O)(=O)c1ccc(Cl)cc1 | inactive: 58%
O=C(O)c1ccccc1C1=Nc2ccc(O)cc2Oc2cc(O)ccc21 | inactive: 110%
O=C(NC1CC(=O)N(c2ccccc2)C1)c1cc2ccccc2o1 (stereo unspecified) | inactive: 72%
COc1ccc(OC)c(-n2cnc3cc(C(=O)NC4CCCC4)ccc32)c1 | inactive: 72%
O=C(Nc1nnc(S(=O)(=O)N2CCCC2)s1)c1ccc(F)cc1 | inactive: 110%

From PubChem BioAssay AID463173 (ICCB-Longwood Screening Facility, Harvard Medical School, 2010)
